Results as given in article PMC6919601, “Identification of Plasmodium dipeptidyl aminopeptidase allosteric inhibitors by high throughput screening” (PLoS ONE, 2019).
Out of some 110,000 compounds screened, about 230 (0.21%) showed an effect of 50% or more. This is one part of the list.

biological target: DPAP1 (Plasmodium falciparum, UniProt Q8IIJ9); assay: primary screen, percent inhibition; read by cleavage of a fluorogenic dipeptide substrate; higher = more effect of the substance; parameters: species or system P. falciparum D10 trophozoite lysates; single well
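Further: 30 min substrate incubation versus DMSO and 10 µM JCP410 controls.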

Chain of DPAP1 (Q8IIJ9 whole entry, looked up): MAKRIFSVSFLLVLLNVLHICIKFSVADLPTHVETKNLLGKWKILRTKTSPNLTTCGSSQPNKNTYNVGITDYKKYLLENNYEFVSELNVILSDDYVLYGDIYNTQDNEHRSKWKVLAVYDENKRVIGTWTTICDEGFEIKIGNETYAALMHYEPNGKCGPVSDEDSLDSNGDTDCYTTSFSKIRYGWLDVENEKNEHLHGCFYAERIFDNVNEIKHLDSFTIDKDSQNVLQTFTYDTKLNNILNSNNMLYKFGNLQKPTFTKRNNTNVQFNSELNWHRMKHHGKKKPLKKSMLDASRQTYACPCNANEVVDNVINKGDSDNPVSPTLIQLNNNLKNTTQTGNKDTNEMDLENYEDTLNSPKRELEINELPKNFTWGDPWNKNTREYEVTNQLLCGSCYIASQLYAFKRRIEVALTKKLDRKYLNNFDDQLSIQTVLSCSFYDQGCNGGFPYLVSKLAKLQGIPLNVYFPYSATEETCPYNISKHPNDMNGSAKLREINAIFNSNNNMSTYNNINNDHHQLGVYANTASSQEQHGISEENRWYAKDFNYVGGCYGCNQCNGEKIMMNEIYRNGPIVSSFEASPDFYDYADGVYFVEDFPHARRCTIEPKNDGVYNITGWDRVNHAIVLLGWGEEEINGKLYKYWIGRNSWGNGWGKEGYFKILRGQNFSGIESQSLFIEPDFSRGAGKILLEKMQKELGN

Compared with `COc1ccc(CCNC(=O)CCCCCn2nnc3ccccc3c2=O)cc1OC`, `COc1ccc(/C=C2\SC(=O)N(CC(=O)Nc3cccnc3)C2=O)cc1OC` is lower in “% Inhibition @ 10 uM” value: 4.02% for the first, -8.05% for the second.

First: Cc1onc(-c2c(Cl)cccc2Cl)c1C(=O)N(Cc1ccccc1)c1ccccn1
Second: CN(CCCNC(=O)Cn1nc(Cc2cccnc2)c2ccccc2c1=O)Cc1ccccc1
The “% Inhibition @ 10 uM” value of the first is higher: -2.35% for the first, -3.14% for the second.

Going from `COC(=O)c1ccc(Cn2nc(C(F)(F)F)cc2C)cc1` to `O=C(Cn1nc(C(F)(F)F)cc1C1CC1)Nc1ccccc1Cl`, the “% Inhibition @ 10 uM” value rises from -1.33% to 1.59%.

Going from `Cc1cc2c(c(=O)n1CCc1ccccc1)C(c1ccccc1F)C(C#N)=C(N)O2` (stereo not shown) to `O=C1c2cccc3cccc(c23)C(=O)N1CCOCc1ccccc1`, the “% Inhibition @ 10 uM” value falls from 16.1% to -1.32%.

Compared with `COc1ccc(C)cc1N(CC(=O)Nc1ccc(Cl)cc1)S(C)(=O)=O`, `COc1ccc(Cl)cc1NC(=O)CN(Cc1ccc(C)cc1)S(=O)(=O)c1ccccc1` is higher in “% Inhibition @ 10 uM” value: -5% for the first, 0.291% for the second.

First: O=C(C1=C(O)C(=O)N(CC2CCCO2)C1c1ccccc1)c1ccc2c(c1)OCCO2 (stereo not shown)
Second: O=C(NCC1CCCO1)c1[nH]c2ccccc2c1Sc1ccc(Cl)cc1 (stereo not shown)
The “% Inhibition @ 10 uM” value of the first is higher: -0.473% for the first, -6.82% for the second.

Going from `COCCCNC(=O)c1cnn2c(C(F)(F)F)cc(-c3cccs3)nc12` to `CCOc1ccc(CC(=O)Nc2ccccc2C(F)(F)F)cc1OCC`, the “% Inhibition @ 10 uM” value falls from -2.26% to -3.34%.

First: CC(C)N1CCN(c2ccc(O)cc2)CC1
Second: CCC(C)n1ncn(-c2ccc(N3CCN(c4ccc(OC)cc4)CC3)cc2)c1=O (stereo not shown)
The “% Inhibition @ 10 uM” value of the first is higher: 0.993% for the first, -1.37% for the second.

Going from `Cc1cccc(-c2noc(COc3ccc(Br)cc3Cl)n2)c1` to `Cc1cnc(NC(=O)c2ccc(COc3ccc(Cl)cc3Cl)o2)s1`, the “% Inhibition @ 10 uM” value falls from 4.85% to 1.87%.

Going from `O=C(O/N=C1\CCCc2oc3c(c21)CCCC3)c1ccc(Cl)cc1` to `CCCn1c2c(c(O)c(C(=O)Nc3cc(C)ccn3)c1=O)CCCC2`, the “% Inhibition @ 10 uM” value rises from -11.6% to -0.458%.

First: CC(C)CC(=O)Nc1ccc(-c2nc(O)c3ccccc3n2)cc1
Second: CCOc1ccccc1-c1cc(C(=O)OC)c2ccccc2n1
The “% Inhibition @ 10 uM” value of the first is higher: 0.331% for the first, -1.1% for the second.

Compared with `O=C(NCc1ccc(F)cc1)c1ccc(CN2CC(=O)N3CCCCC3C2=O)cc1` (stereo not shown), `O=C1C(c2ccc(F)cc2)N(CCc2ccccc2Cl)C(=O)CN1C1CCCCC1` (stereo not shown) is higher in “% Inhibition @ 10 uM” value: -2.5% for the first, 1.27% for the second.

Going from `CCCNC(=O)C1Sc2nnc(C)n2NC1c1ccc(OC)c(Cl)c1` (stereo not shown) to `COc1cc(Cc2nnc(C(=O)NCc3ccccn3)o2)cc(OC)c1OC`, the “% Inhibition @ 10 uM” value rises from 1.72% to 6.37%.

Compared with `NC(=O)c1sc2nc(N3CCOCC3)c3c(c2c1N)CCCC3`, `CCOc1ccc(NC(=O)c2sc3nc4c(cc3c2N)CCC4)cc1` is lower in “% Inhibition @ 10 uM” value: 50.2% for the first, 2.44% for the second.

Going from `Cc1ccc(OCCCN2CCCC2)c(C)c1` to `COc1ccccc1-c1c(C)nn2c(NCCN3CCCCCC3)cc(C)nc12`, the “% Inhibition @ 10 uM” value rises from -3.94% to -3.7%.

Compared with `COc1ccc(OC)c(C2NC(=O)NC(C)=C2C(=O)OC(C(F)(F)F)C(F)(F)F)c1` (stereo not shown), `COC(=O)C1=C(C)NC(=O)/C1=C\c1cccc(OC)c1` is higher in “% Inhibition @ 10 uM” value: -2.87% for the first, -2.2% for the second.

Going from `CCOc1ccccc1C1C(C(=O)Nc2cccnc2)=C(C)Nc2nc(-c3ccc(OC)cc3)nn21` (stereo not shown) to `FC(F)Oc1ccccc1C1C=C(c2cccnc2)Nc2ncnn21` (stereo not shown), the “% Inhibition @ 10 uM” value falls from -1.47% to -5.05%.

Compared with `CCc1ccc(Oc2nc3ccccn3c(=O)c2/C=C(\C#N)C(=O)NC2CCS(=O)(=O)C2)cc1` (stereo not shown), `CCc1ccc(C2C3=C(CC(C)(C)CC3=O)N=C3C2=C(O)c2ccccc23)cc1` (stereo not shown) is higher in “% Inhibition @ 10 uM” value: -4% for the first, 2.31% for the second.

Going from `CN(C)c1ccc(NC(=O)C2C3C=CC(O3)C2C(=O)O)cc1` (stereo not shown) to `O=C(O)c1ccc(NC(=O)C2C3CCC(O3)C2C(=O)O)cc1` (stereo not shown), the “% Inhibition @ 10 uM” value rises from -13.5% to -3.34%.

Going from `CCOc1ccccc1CN1CCN(C/C=C/c2ccccc2)CC1` to `Cc1cccc(OCC(=O)N2CCN(Cc3ccccc3Br)CC2)c1`, the “% Inhibition @ 10 uM” value rises from 0.605% to 1.84%.

Compared with `O=C(c1cc2ccc3cccnc3c2[nH]1)N1CCc2ccccc2C1`, `O=C(c1cc(-c2ccc(Cl)cc2)n[nH]1)N1CCc2ccccc2C1` is higher in “% Inhibition @ 10 uM” value: -2.9% for the first, 4.47% for the second.

Going from `Cc1ccc2[nH]c3c(c2c1)CCC(CN(C)C)C3=O` (stereo not shown) to `Cc1ccc2[nH]c(C)c(CCN)c2c1`, the “% Inhibition @ 10 uM” value falls from -0.693% to -7.42%.

Compared with `Cc1ccc(C2=NC3(CCN(C(=O)c4ccc(C(C)(C)C)cc4)CC3)NC2=O)cc1C`, `Cc1ccc(N2C(=O)CC(N3CCc4ccccc4C3)C2=O)cc1C` (stereo not shown) is lower in “% Inhibition @ 10 uM” value: 5.85% for the first, 3.91% for the second.

Going from `CCN1CCN(C(=O)Cn2cc(S(=O)(=O)NC)c(S(=O)(=O)NC)c2)CC1` to `O=C(CN1C(=O)c2ccccc2C1=O)N1CCN(Cc2ccc(Cl)cc2)CC1`, the “% Inhibition @ 10 uM” value rises from -1.59% to -1.46%.

First: COc1ccccc1C(=O)Nc1cc(C)cc(C)c1
Second: Cc1ccc(C)n1-c1ccc(C(=O)Nc2ccccc2)cc1
The “% Inhibition @ 10 uM” value of the first is higher: 44% for the first, 0.727% for the second.

First: COC(=O)CCNS(=O)(=O)c1ccc([N+](=O)[O-])cc1
Second: CC(=O)NS(=O)(=O)c1ccc(NC(=O)CCC2CCCC2)cc1
The “% Inhibition @ 10 uM” value of the first is higher: 3.25% for the first, 2.08% for the second.

First: COc1ccc(C=C2C(=O)NC(=S)NC2=O)cc1OC
Second: COc1cc(-c2nnc3sc(/C=C/c4ccccc4)nn23)cc(OC)c1OC
The “% Inhibition @ 10 uM” value of the first is lower: -6.22% for the first, 59.6% for the second.

Compared with `Cc1oc(-c2ccccc2F)nc1CSCC(=O)NCCN1CCCC1`, `O=C(CCCc1cn(Cc2ccccc2Cl)c2ccccc12)NCCN1CCOCC1` is lower in “% Inhibition @ 10 uM” value: 2.16% for the first, -5.42% for the second.

Going from `CCOC(=O)c1c(NC(=O)C(C)(C)C)sc2c1CCCC2=O` to `COC(=O)C1=C(N)OC2=C(C(=O)CCC2)C1c1cc(Cn2cncn2)cs1` (stereo not shown), the “% Inhibition @ 10 uM” value falls from 2.78% to 2.65%.

Going from `COc1cc2c(cc1OC)CN(C1CN3CCC1CC3)CC2` (stereo not shown) to `COc1ccc(OC)c(CN2CCN(Cc3ccc(SC)cc3)CC2)c1`, the “% Inhibition @ 10 uM” value rises from 0.217% to 0.673%.

Going from `Cc1ccc(CNC(=O)c2ccc3c(c2)ncn3C2CCCC2)cc1` to `Cc1ccc(CNS(=O)(=O)c2ccc3c(c2)OCCO3)cc1`, the “% Inhibition @ 10 uM” value rises from -3.12% to 0.0504%.

First: CC(C)NC(=O)c1cc([N+](=O)[O-])ccc1Cl
Second: Cc1ccc(C(=O)N/C(=C/c2ccco2)C(=O)NC(C)C)cc1
The “% Inhibition @ 10 uM” value of the first is higher: 0.467% for the first, -2.07% for the second.

First: CCOC(=O)N1CCN(S(=O)(=O)N2CCCC(C(=O)NCc3ccc4c(c3)OCO4)C2)CC1 (stereo not shown)
Second: CCOC(=O)N1CCC(N2C(=O)c3ccc(C(=O)O)cc3C2=O)CC1
The “% Inhibition @ 10 uM” value of the first is lower: -6.88% for the first, 4.01% for the second.

Compared with `O=C(C1CCN(S(=O)(=O)c2c[nH]cn2)CC1)N1CCn2c1nc1ccccc12`, `O=C(CCSc1ccc(Cl)cc1)Nc1ccc(S(=O)(=O)N2CCCC2)cc1` is higher in “% Inhibition @ 10 uM” value: -0.719% for the first, 3.8% for the second.

Compared with `N#CCNC(=O)[C@H](CSCc1ccc(Cl)cc1)NC(=O)c1ccccc1`, `O=C(N[C@@H](Cc1ccc2ccccc2c1)C(=O)N[C@@H](CCc1ccccc1)C(=O)C[N+](=O)[O-])OCc1ccccc1` is higher in “% Inhibition @ 10 uM” value: -3.49% for the first, 3.66% for the second.

Going from `O=c1c2c(c1=O)C1(SCCCS1)c1ccccc1O2` to `COc1cc2c3c(c1OC)C1(C=CC(=O)C=C1)CC3N(C(=O)c1ccccc1)CC2` (stereo not shown), the “% Inhibition @ 10 uM” value rises from 0.746% to 2.1%.

First: CCC(C)NS(=O)(=O)c1ccc(OCC(=O)Nc2ccc3c(c2)OCCO3)cc1 (stereo not shown)
Second: COc1cccc(N(CC(=O)Nc2ccc3c(c2)OCO3)S(=O)(=O)c2ccccc2)c1
The “% Inhibition @ 10 uM” value of the first is higher: 1.17% for the first, -6.77% for the second.

Compared with `CCCN1CCC(NCc2ccc(Cl)cc2)CC1`, `NC(=O)C1CCCN(Cc2ccc(F)cc2)C1` (stereo not shown) is higher in “% Inhibition @ 10 uM” value: -1.5% for the first, -0.603% for the second.

Going from `COc1ccc(-c2cn3c4ccccc4n(C)c3n2)cc1` to `CCCc1nc2ccccc2c(=O)n1-c1cccc(OC)c1`, the “% Inhibition @ 10 uM” value falls from 0.0538% to -8.23%.

Going from `O=C1c2ccccc2NC(c2cccc([N+](=O)[O-])c2)N1c1ccc(Br)cc1` (stereo not shown) to `COc1cc(C2c3c(oc4ccccc4c3=O)C(=O)N2c2nccs2)cc(OC)c1OC` (stereo not shown), the “% Inhibition @ 10 uM” value rises from -3.35% to 6.01%.

Compared with `Cc1ccc(NC(=O)c2cc(C(F)(F)F)nn2C)c(C)c1`, `CCc1nc2cccnc2n1-c1ccc(CC(=O)N2CCN(C)CC2)cc1` is lower in “% Inhibition @ 10 uM” value: -4.21% for the first, -5.54% for the second.

First: Cc1ccc(C(C)C)cc1OP1(=O)COc2ccccc2OC1
Second: COc1ccc(-c2onc(C)c2C)cc1S(=O)(=O)N(C)CC1COc2ccccc2O1 (stereo not shown)
The “% Inhibition @ 10 uM” value of the first is lower: -1.11% for the first, 1.39% for the second.

Going from `CCCS(=O)(=O)N1CCCC(C(=O)NCCCN2CCCCC2CC)C1` (stereo not shown) to `OCCN1CCN(C2CCCCCCC2)CC1`, the “% Inhibition @ 10 uM” value falls from -3.58% to -3.6%.

First: CCOC(=O)c1c(S(=O)(=O)N(Cc2ccc(F)cc2)Cc2cccnc2)c(C)n(C)c1C
Second: Cc1ccc2c(CNCCC3=CCCCC3)c(C(=O)O)n(Cc3ccccc3F)c2c1
The “% Inhibition @ 10 uM” value of the first is lower: -2.83% for the first, -2.74% for the second.

Going from `Cc1[nH]nc2ccccc12` to `COc1ccccc1N1CCN(CCN2C(=O)C3CCCN3C2=O)CC1` (stereo not shown), the “% Inhibition @ 10 uM” value rises from 1.68% to 3.29%.

Going from `Cn1c(=O)c2c(ncn2CC(O)CN2CCOCC2)n(C)c1=O` (stereo not shown) to `Cc1cc(C(=O)N2CCN(c3ccccn3)CC2)c2c(C)nn(-c3cccc(Cl)c3C)c2n1`, the “% Inhibition @ 10 uM” value rises from -3.04% to -3%.

Compared with `CNC(=O)C(NC(=O)c1ccc([N+](=O)[O-])cc1)C12CC3CC(CC(C3)C1)C2` (stereo not shown), `CN1CCCN(Cc2cc(Cl)ccc2[N+](=O)[O-])CC1` is lower in “% Inhibition @ 10 uM” value: 2.58% for the first, 2.23% for the second.

Going from `COc1cc2oc(C(=O)OCCN(C)C)c(C)c2cc1Br` to `COc1ccc(-c2nc(SCC(=O)NCC3CCCO3)c(-c3ccc(C)cc3)[nH]2)cc1` (stereo not shown), the “% Inhibition @ 10 uM” value rises from -1.76% to 5.06%.

`CN(C)S(=O)(=O)n1cc(/C=C(\NC(=O)c2ccccc2F)C(=O)N2CCCC2)c2ccccc21` was tested, and the “% Inhibition @ 10 uM” value was -3.52%.
